Measured values from the supplement of paper PMC8948288.
The sequences are guide strands of siRNAs; only the seed at positions 2 to 7 varies.

Experiments:
GL261 = test: cell viability relative to siNT1 (ATP content); H4 human neuroglioma and GL261 mouse glioma; higher = less toxic; settings: siRNA concentration 25 nM; 96 h; mouse
Method: (§1)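 Arrayed screen of all 4096 6mer seeds. Each seed sits at guide-strand positions 2-7 of a neutral 19mer siRNA backbone (siNT1-based, passenger strand 2'-O-methyl modified at positions 1-2 to block RISC loading, 3' DNA overhangs). The guide strand is built here as U + seed + ACAUGUAAACCA. Cells were reverse transfected in triplicate in 384-well plates (H4 at 10 nM, GL261 at 25 nM) with Lipofectamine RNAiMAX. Viability was read as ATP content (CellTiter-Glo) 96 h after transfection and normalised to siNT1 (%).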

H4 = test: as above; settings: siRNA concentration 10 nM; 96 h; human
Method: as §1
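Further: cells reverse transfected with siRNA duplexes via lipid reagent, ATP read by luminescence, triplicate wells, values scaled to mean viability with non-targeting control siNT1.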

| Sequence | cell viability (GL261) [%] | cell viability (H4) [%] |
| --- | --- | --- |
| UAGCGGCACAUGUAAACCA | 11 | 24.1 |
| UAGCGGGACAUGUAAACCA | 47.4 | 36.5 |
| UAGCGGUACAUGUAAACCA | 53.2 | 33.9 |
| UAGCGUAACAUGUAAACCA | 69.8 | 113 |
| UAGCGUCACAUGUAAACCA | 56.5 | 77.4 |
| UAGCGUGACAUGUAAACCA | 64.6 | 100 |
| UAGCGUUACAUGUAAACCA | 68.6 | 114 |
| UAGCUAAACAUGUAAACCA | 64.3 | 91.8 |
| UAGCUACACAUGUAAACCA | 42.9 | 66.7 |
| UAGCUAGACAUGUAAACCA | 43.2 | 60.5 |
| UAGCUAUACAUGUAAACCA | 57.5 | 70.8 |
| UAGCUCAACAUGUAAACCA | 51.6 | 88 |
| UAGCUCCACAUGUAAACCA | 17.4 | 34 |
| UAGCUCGACAUGUAAACCA | 46.5 | 91.6 |
| UAGCUCUACAUGUAAACCA | 18.4 | 43 |
| UAGCUGAACAUGUAAACCA | 49.9 | 105 |
| UAGCUGCACAUGUAAACCA | 18.6 | 31.6 |
| UAGCUGGACAUGUAAACCA | 26.9 | 9.26 |
| UAGCUGUACAUGUAAACCA | 37.2 | 67 |
| UAGCUUAACAUGUAAACCA | 66.7 | 86.7 |
| UAGCUUCACAUGUAAACCA | 21.7 | 63.7 |
| UAGCUUGACAUGUAAACCA | 44.5 | 67.1 |

| Sequence | cell viability (GL261) [%] | cell viability (H4) [%] |
| --- | --- | --- |
| UAGCUUUACAUGUAAACCA | 37.2 | 107 |
| UAGGAAAACAUGUAAACCA | 61.7 | 83.7 |
| UAGGAACACAUGUAAACCA | 40.2 | 80.7 |
| UAGGAAGACAUGUAAACCA | 64.2 | 95.2 |
| UAGGAAUACAUGUAAACCA | 60.7 | 98.7 |
| UAGGACAACAUGUAAACCA | 59.8 | 79.8 |
| UAGGACCACAUGUAAACCA | 34.2 | 70.9 |
| UAGGACGACAUGUAAACCA | 52.1 | 69.5 |
| UAGGACUACAUGUAAACCA | 20.4 | 76.7 |
| UAGGAGAACAUGUAAACCA | 54.1 | 78.9 |
| UAGGAGCACAUGUAAACCA | 30.3 | 8.15 |
| UAGGAGGACAUGUAAACCA | 15 | 50 |
| UAGGAGUACAUGUAAACCA | 42.5 | 37.9 |
| UAGGAUAACAUGUAAACCA | 69.2 | 96.4 |
| UAGGAUCACAUGUAAACCA | 40.1 | 45.3 |
| UAGGAUGACAUGUAAACCA | 75.6 | 102 |
| UAGGAUUACAUGUAAACCA | 65.6 | 80.3 |
| UAGGCAAACAUGUAAACCA | 33.9 | 67.9 |
| UAGGCACACAUGUAAACCA | 22.8 | 40 |
| UAGGCAGACAUGUAAACCA | 19.7 | 47 |
| UAGGCAUACAUGUAAACCA | 24 | 57.2 |
| UAGGCCAACAUGUAAACCA | 31.3 | 50.1 |

| Sequence | cell viability (GL261) [%] | cell viability (H4) [%] |
| --- | --- | --- |
| UAGGCCCACAUGUAAACCA | 22.6 | 51 |
| UAGGCCGACAUGUAAACCA | 54.3 | 82.9 |
| UAGGCCUACAUGUAAACCA | 37.5 | 36.5 |
| UAGGCGAACAUGUAAACCA | 54.4 | 90.5 |
| UAGGCGCACAUGUAAACCA | 20 | 37.4 |
| UAGGCGGACAUGUAAACCA | 28.5 | 58.8 |
| UAGGCGUACAUGUAAACCA | 37 | 69.8 |
| UAGGCUAACAUGUAAACCA | 52.9 | 95.6 |
| UAGGCUCACAUGUAAACCA | 16.3 | 46.5 |
| UAGGCUGACAUGUAAACCA | 38.4 | 75.7 |
| UAGGCUUACAUGUAAACCA | 39.5 | 64.4 |
| UAGGGAAACAUGUAAACCA | 61.5 | 88.7 |
| UAGGGACACAUGUAAACCA | 30.8 | 29.9 |
| UAGGGAGACAUGUAAACCA | 50.1 | 73.3 |
| UAGGGAUACAUGUAAACCA | 46.4 | 45.1 |
| UAGGGCAACAUGUAAACCA | 38.7 | 73.5 |
| UAGGGCCACAUGUAAACCA | 15.1 | 18.5 |
| UAGGGCGACAUGUAAACCA | 30.2 | 73.9 |
| UAGGGCUACAUGUAAACCA | 17.4 | 29.1 |
| UAGGGGAACAUGUAAACCA | 41.7 | 68.4 |
| UAGGGGCACAUGUAAACCA | 16.2 | 13.8 |
| UAGGGGGACAUGUAAACCA | 42.9 | 44.4 |

| Sequence | cell viability (GL261) [%] | cell viability (H4) [%] |
| --- | --- | --- |
| UAGGGGUACAUGUAAACCA | 10.7 | 21 |
| UAGGGUAACAUGUAAACCA | 54.9 | 115 |
| UAGGGUCACAUGUAAACCA | 10.5 | 20.2 |
| UAGGGUGACAUGUAAACCA | 44.1 | 102 |
| UAGGGUUACAUGUAAACCA | 37.6 | 102 |
| UAGGUAAACAUGUAAACCA | 57.3 | 83.1 |
| UAGGUACACAUGUAAACCA | 33.3 | 50.7 |
| UAGGUAGACAUGUAAACCA | 55.5 | 86.3 |
| UAGGUAUACAUGUAAACCA | 32.5 | 53.6 |
| UAGGUCAACAUGUAAACCA | 33.7 | 97.5 |
| UAGGUCCACAUGUAAACCA | 13.3 | 38.5 |
| UAGGUCGACAUGUAAACCA | 46.6 | 70.8 |
| UAGGUCUACAUGUAAACCA | 23.6 | 10.2 |
| UAGGUGAACAUGUAAACCA | 64.2 | 74.5 |
| UAGGUGCACAUGUAAACCA | 29.4 | 41.9 |
| UAGGUGGACAUGUAAACCA | 10.8 | 56.5 |
| UAGGUGUACAUGUAAACCA | 35.1 | 69.8 |
| UAGGUUAACAUGUAAACCA | 59.3 | 87.9 |
| UAGGUUCACAUGUAAACCA | 34.7 | 73.1 |
| UAGGUUGACAUGUAAACCA | 81.6 | 73.8 |
